Measured values from ChEMBL document CHEMBL1201862, “PubChem BioAssay data set” (2004).
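Dose response: 5 concentrations. Exposure: 48 h. Format: 96-well plates. Endpoint: linear interpolation; highest concentration if not reached. GI50 is the concentration that inhibits growth by half.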 Calls of active or inactive are those of the source. Cut-off read from the data, not from the text of the source: active = GI50 up to about 1.1 µM and inactive = higher.

test system: NCI-H322M; test: inhibition of tumour cell growth, NCI panel, 48 h

SMILES	GI50
Cc1cc(C)c(P2C(=C(O[Si](C(C)C)(C(C)C)C(C)C)C(C)(C)C)C2(c2ccccc2)c2ccccc2)c(C)c1 (centres undefined)	inactive: > 100 µM
CCO/N=C(/N)c1ncn(Cc2ccccc2)c1NCC(OCC)OCC	inactive: > 100 µM
CC(C)(C)OC(=O)CCC1NC(=O)[C@@H]2Cc3c([nH]c4ccccc34)C(c3ccccc3)N2C1=O (some centres undefined)	inactive: 36.1 µM
O=C(O)c1nn(-c2ccc(Cl)cc2)c2c1C(=O)c1ccccc1C2=O	inactive: 41.8 µM
Cc1cccc(NC(=O)/C(=N\NC(C)(C)C)C2NC(=S)NC2=O)c1C (centres undefined)	inactive: > 100 µM
O=C1CCCCc2cccc(O)c21	inactive: > 100 µM
CN/N=C(\C)C(CN1CCCCC1)C(C1=C(O)c2ccccc2OC1)c1ccccc1 (centres undefined)	inactive: > 100 µM
Cc1cn(C2CC(O)C(Cn3nncc3Cn3nc(Br)c(=O)[nH]c3=O)O2)c(=O)[nH]c1=O (centres undefined)	inactive: > 100 µM
COc1ccc(N2C(=O)C(N3C(=O)C=CC3=O)C2C=O)cc1 (centres undefined)	inactive: > 100 µM
N/N=C1\C(OC(=O)Nc2ccccc2)=Nc2ccccc21	inactive: 27.2 µM
COc1ccc(C2=Nc3cc(C)c(C)cc3NC(c3ccccc3)C2)cc1 (centres undefined)	inactive: > 100 µM
CCc1[nH]nc(C(N)=O)c1/N=N/N(C)C	inactive: > 100 µM
O=C1C=C(c2ccccc2)NC1(c1ccccc1)c1cc(-c2ccccc2)[nH]c1-c1ccccc1 (centres undefined)	inactive: > 100 µM
O=c1[nH]nc(Cc2ccc([N+](=O)[O-])cc2)[nH]1	inactive: > 100 µM
C[N+](C)([O-])Cc1cccc(NC(=O)c2ccc(C(=O)Nc3cccc(C[N+](C)(C)[O-])c3)cc2)c1	inactive: > 100 µM
O=[N+]([O-])c1cccc2nccc(NCC(O)CO)c12 (centres undefined)	inactive: 11.1 µM
O=C1/C(=C/c2cccc(Oc3ccccc3)c2)N=C(c2ccccc2)N1c1nc2ccc(Sc3ccccc3)cc2[nH]1	inactive: 53.8 µM
N#CC(C#N)=Cc1ccc(C(O)P(=O)(O)O)cc1 (centres undefined)	inactive: > 100 µM
OC(C#Cc1ccccc1)(c1ccccc1)c1ccccc1	inactive: 24.5 µM
Cc1ccc2ccc(O)cc2c1	inactive: 79.4 µM
CC1=CCCC(C)(O)C2CC(CCC3(C)OC3CC1)C(C)C(=O)O2 (centres undefined)	inactive: > 100 µM
COc1cc(C2(O)c3ccccc3C3=NCCN32)cc(OC)c1OC (centres undefined)	inactive: > 100 µM
O=CCCn1[nH]c(=O)ccc1=O	inactive: > 100 µM

SMILES	GI50
O=C(/C=C/c1ccsc1)c1ccco1	inactive: 16.4 µM
COc1ccc(-c2onc(-c3c(C)cc(C)cc3C)c2C2=NCCN2)cc1	inactive: 45.1 µM
COC(=O)c1ccc([N+](=O)[O-])c(O)c1	inactive: > 100 µM
COc1ccc(/C=N/Nc2nc3ccccc3c(=O)n2-c2ccccc2)c(OCc2ccccc2)c1	inactive: > 100 µM
COc1cccc2c1C(=O)c1c(O)c3c(c(O)c1C2=O)C[C@@](O)(C(=O)CO)C[C@@H]3OC1CC2C(OCN3CN2COC2C(C)OC(O[C@H]4C[C@](O)(C(=O)CO)Cc5c(O)c6c(c(O)c54)C(=O)c4c(OC)cccc4C6=O)CC23)C(C)O1 (some centres undefined)	active: 0.1 µM
CSc1ccc(/C=C2\N=C(c3ccccc3)N(c3nc4cc(C)c(C)cc4s3)C2=O)cc1	inactive: 45.9 µM
CCOC(=O)c1nc2ccc(C(F)(F)F)cc2nc1Nc1ccc(Cl)c(Cl)c1	inactive: > 100 µM
CC1(C)N=C(N)N=C(N)N1c1cccc(OCc2cccc([N+](=O)[O-])c2)c1	inactive: 48.3 µM
COc1ccc2nc3cc(Cl)ccc3c(Sc3ccc([N+](=O)[O-])cc3)c2c1	inactive: > 10 µM
CNC(=O)C1CCC(=O)N1CN(C(C)=O)c1ccccc1 (centres undefined)	inactive: > 100 µM
N=C(N)Nc1ccc(CC(N)NCC(=O)O)cc1 (centres undefined)	inactive: > 25 µM
O=C(CCN1CCN(c2ccccc2)CC1)N1CCc2c([nH]c3ccccc23)C1c1cccnc1 (centres undefined)	inactive: > 10 µM
Cl/C(=C\C=N\c1ccc(I)cc1)c1ccc2ccccc2c1	inactive: 22.6 µM
COC(OC)[C@@H]1OC[C@@H](O)[C@@H]1n1cnc2c(N)ncnc21	inactive: > 100 µM
CC(C)C(NC(=O)C(Cc1ccccc1)NC(=O)[C@H]1CCC[C@H]1NC(=O)C(N)Cc1ccc(O)cc1)C(N)=O (some centres undefined)	inactive: > 100 µM
COc1ccc(CCCCNCc2cccc(CNCCCCc3ccc(OC)cc3)c2)cc1	inactive: 1.84 µM
CC(C)C(OC(=O)c1cc(NC(=S)c2ccccc2)ccc1Cl)C(C)C	inactive: 32.9 µM
O=C(O)C1Cc2[nH]cnc2CN1 (centres undefined)	inactive: > 100 µM
O=C(c1ccccc1)C(C(=O)c1ccccc1)C1(O)C(=O)c2ccccc2C1=O	inactive: 45.3 µM
CC(C)OC(=O)c1ccc(NCC2=CC(=O)C=CC2=O)cc1Cl	inactive: 39.7 µM
O=c1[nH]c(=O)n(C2CC(O)C(CO)O2)cc1COCC(F)(F)F (centres undefined)	inactive: > 100 µM
CCCCCCCCCCCCCCCCOCC(CN(C)CCN(C)C)OCCCCCCCCCCCCCCCC (centres undefined)	inactive: > 100 µM
Cc1ccc(S(=O)(=O)N/N=C(/c2nc3ccc([N+](=O)[O-])cc3nc2O)C(O)c2ccc(C(O)/C(=N\NS(=O)(=O)c3ccc(C)cc3)c3nc4ccc([N+](=O)[O-])cc4nc3O)cc2)cc1 (centres undefined)	inactive: 58.6 µM

SMILES	GI50
N#Cc1ccc(CSC2=C(c3ccc(Cl)cc3)S/C(=C3\SC(SCc4ccc(C#N)cc4)=C(c4ccc(Cl)cc4)S3)S2)cc1	inactive: > 100 µM
N=C(N)N/N=C(/CCN1CCCC1)CC(c1ccccc1)c1c(O)c2ccccc2oc1=O (centres undefined)	inactive: > 100 µM
O=C1CSC2(CC(/C=C/c3ccccc3Br)=NN2c2cccc(S(=O)(=O)O)c2)N1c1nc2ccccc2s1 (centres undefined)	inactive: > 100 µM
CC(C)=CC1CC(=O)C1(C)Sc1ccccc1 (centres undefined)	inactive: > 100 µM
CC1(OCc2ccccc2)C(=O)N2C1NCC2(C)C (centres undefined)	inactive: > 100 µM
CCC1=C(C=O)c2cc3[nH]c(cc4nc(c5c6[nH]c(cc1n2)c(C)c6C(=O)C5C(=O)OC)C(CCC(=O)OC)C4C)c(C)c3CC (centres undefined)	inactive: > 100 µM
CCN(CC)CCCC(C)Nc1ccnc2cc(Cl)ccc12 (centres undefined) [CHLOROQUINE PHOSPHATE]	inactive: 33.9 µM
CSc1cc(=O)n2c3ccccc3c3ccnc1c32	inactive: > 100 µM
Cc1n[nH]c(=O)n1/N=C/c1ccc(Cl)cc1	inactive: 86.3 µM
COc1cccc2c(Nc3ccc(S(=O)(=O)NC(C)=O)cc3)c3ccc([N+](=O)[O-])cc3nc12	inactive: 39.8 µM
CCOC(=O)C1(C(=O)OCC)CSC1	inactive: 3.03 µM
CCC1=C(C(C)=O)[C@@H]2CCCCC(C(=O)OC)[C@@H]2C1=O (some centres undefined)	inactive: > 100 µM
CC(=O)Oc1cccc2c(/C=N/NC(N)=S)ncc(C)c12	active: 0.522 µM
COC(=O)CC(C(C(C)=O)C(=O)OCc1ccccc1)N1C(=O)OCC1c1ccccc1 (centres undefined)	inactive: > 100 µM
CN(C)c1ccc(/N=N/c2ccccn2)cc1	inactive: 33.7 µM
OCC1OC(n2cnc3c2N=CNC[C@H]3O)C(Cl)C1O (some centres undefined)	inactive: > 100 µM
CC(C)(C)OC(=O)CN1C(=O)CC1CC(=O)c1ccccc1 (centres undefined)	inactive: 17.8 µM
CCOC(=O)OC1(c2ccccc2)CCN(C)CC1	inactive: > 100 µM
CC(C)(C)OC(=O)[C@@H]1CCC(=S)N1Cc1ccccc1	inactive: > 100 µM
CCCCCCCC(=O)N/N=C/c1ccc(Sc2nccn2C)c([N+](=O)[O-])c1	inactive: 27.5 µM
Cc1ccc(C(=O)O)cc1S(=O)(=O)Nn1cnc2ccc(S(=O)(=O)Nc3ccccc3C(=O)O)cc2c1=O	inactive: > 100 µM
COc1ccc(/C=N/n2c(C)n[nH]c2=O)c(OC)c1	inactive: > 100 µM
O=c1[nH]nc(-c2ccccc2)n1-c1ccncc1	inactive: > 100 µM

SMILES	GI50
CC(C)(C)c1ccc(S(=O)(=O)N2C(c3cccc(C4CC[C@@H](C(=O)O)N4S(=O)(=O)c4ccc(C(C)(C)C)cc4)c3)CC[C@H]2C(=O)O)cc1 (some centres undefined)	inactive: 57.9 µM
O=C1CCCn2c(nc3ccccc32)N1	inactive: > 100 µM
Cc1cc2occ(C)c(=O)c2c2c1OC(C)(C)S2	inactive: > 100 µM
FC(F)(Sc1ncc[nH]1)c1nc2ccccc2o1	inactive: > 100 µM
CCCC(=O)OCC1OC2OC(C)(C)OC2C2OC(C)(C)OC12 (centres undefined)	inactive: > 100 µM
CC(C)(C)n1nc(C2CC2)cc1NC(=O)Nc1ccc(Cl)cc1	inactive: > 100 µM
[O-][N+]1=[N+]([O-])[C@@H](c2ccccc2)[C@H]1c1ccccc1	inactive: 15.2 µM
COC(=O)C1=C(C(=O)OC)SC2(S1)C(C(=O)OC)=C(C(=O)OC)Sc1c2ssc1=O	inactive: 10.8 µM
COC(=O)C1=C(C)N2[C@H](C(=O)O)CS[C@@]2(C)[C@H](C(=O)OC)[C@H]1c1cccc([N+](=O)[O-])c1	inactive: > 100 µM
COC1(CC[C@@H](C)COC2OC(CO)C(O)C(O)C2O)O[C@H]2C[C@H]3[C@@H]4CC=C5C[C@@H](OC6OC(CO)C(OC7OC(C)C(O)C(O)C7O)C(O)C6OC6OC(C)C(O)C(O)C6O)CC[C@]5(C)[C@H]4CC[C@]3(C)[C@H]2[C@@H]1C (some centres undefined)	inactive: 3.03 µM
CC(=O)c1cccc(NC(=O)C(=O)C(C(=O)NN)c2ccccc2)c1 (centres undefined)	inactive: > 100 µM
CC(C)OCN/C(N)=N\C#N	inactive: > 100 µM
O=[N+]([O-])c1ccc2[nH]nc(OCc3ccccc3Cl)c2c1	inactive: 43 µM
O=S1(=O)c2ccccc2N=C(c2ccccc2Cl)CC1c1ccc(F)cc1 (centres undefined)	inactive: 16.7 µM
CN(C)c1ccc(/C=c2\sc3nnc(-c4ccco4)n3c2=O)cc1	inactive: > 100 µM
COc1ccc(C(=O)/C=C/c2ccc(Oc3cc(C(=O)/C=C/c4ccc(O)cc4)c(O)cc3OC)cc2)c(O)c1 [RHUSCHALCONE I]	inactive: 56.6 µM
CC(=O)O[C@H]1C(N(C)C(=O)c2ccccc2)CC[C@]2(C)C3CC[C@@]4(C)C(CC(O)[C@@H]4C(C)N(C)C)[C@@H]3CCC12 (some centres undefined)	inactive: > 100 µM
C=C1CCCC2OC(OC)CCC12 (centres undefined)	inactive: > 100 µM
Brc1ccc(-c2ccc(-c3ccc(Br)s3)s2)s1	inactive: > 100 µM
COC1OC2COC(c3ccccc3)OC2C(OC(=S)c2ccccc2)C1O (centres undefined)	inactive: 23.3 µM
